# According to PubChem BioAssay AID624417 (National Center for Advancing Translational Sciences (NCATS), 2012):
# About 6,400 (1.6%) of roughly 410,000 compounds were called active. Inconclusive means that the source gave no clear call. Such entries were picked first, then a sample of the others. The call rests on the fitted dose curve; in most records, active means well fitted inhibition curve with a large enough effect; inconclusive means small, poorly fitted or top-dose-only effect; inactive means no such curve, though single readings can be large or run the other way. Potencies of inconclusive entries are left out as doubtful fits.
# Target: Glucagon-like peptide 1 receptor (Homo sapiens) (UniProt P43220)
# UniProt P43220, sequence (P43220 whole entry, looked up): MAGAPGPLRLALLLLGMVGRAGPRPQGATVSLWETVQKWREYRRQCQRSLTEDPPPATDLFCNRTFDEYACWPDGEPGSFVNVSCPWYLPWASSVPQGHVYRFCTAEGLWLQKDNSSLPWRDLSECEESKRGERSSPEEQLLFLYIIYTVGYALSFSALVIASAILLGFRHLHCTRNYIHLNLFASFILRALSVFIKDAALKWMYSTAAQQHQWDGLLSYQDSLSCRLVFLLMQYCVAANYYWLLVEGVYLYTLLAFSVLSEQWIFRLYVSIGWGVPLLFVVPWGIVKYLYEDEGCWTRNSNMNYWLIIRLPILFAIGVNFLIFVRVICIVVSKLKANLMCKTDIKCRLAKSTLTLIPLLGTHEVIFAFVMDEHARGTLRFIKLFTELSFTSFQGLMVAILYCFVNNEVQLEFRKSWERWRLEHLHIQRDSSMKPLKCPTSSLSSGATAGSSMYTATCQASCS
# Assay: qHTS of GLP-1 Receptor Inverse Agonists (Inhibition Mode); further: nearly all actives have a fitted effect of over 55% in size
# Conditions: HEK293 GLP-1R CRE-luciferase, luminescence, 24 h, GLP-1R form is constitutively active; activity change, negative = inhibition: at 38.3 µM (top of the series) unless noted
# In short: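 GLP-1R inverse agonism mode: basal reporter luminescence in engineered HEK293 cells measured after one day of compound exposure at 37 deg C, with a 12 min room-temperature detection step.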
# On the % scale 0 is the no-effect control and ±100 the full control effect; potency means the concentration at half of the fitted maximal effect; tags describe the fitted curve by direction and shape.
SMILES,Potency,"activity change, negative = inhibition"
Cc1ccc(-c2nc3cccnc3s2)cc1NS(=O)(=O)c1ccc2c(c1)OCCO2,"inconclusive [inhibitor, single point]",–
Cc1cc(C)nc(-n2nc(C)cc2NC(=O)c2ccc(F)cc2F)n1,"inconclusive [inhibitor, full curve, poor fit]",–
COc1ccc(C(=O)NCc2nnc(SCC(=O)Nc3ccccc3)n2-c2ccccc2)cc1,–,inactive: -3.9%
O=C(Oc1c(-c2ccco2)oc2ccccc2c1=O)c1cccnc1,"inconclusive [inhibitor, single point]",–
CCCN1CCC(NC(=S)Nc2cccc(Cl)c2Cl)CC1,"inconclusive [inhibitor, single point]",–
Cc1ccc(-n2nnc(-c3nsc(NC(=O)c4cccc(Cl)c4)n3)c2C)cc1C,"inconclusive [inhibitor, single point]",–
CCCC(=O)Nc1ccc(Cl)c(NC(=O)c2cccc(OC)c2)c1,"inconclusive [inhibitor, partial curve]",–
Cc1cccc(NC(=O)c2cc(-c3ccc(C)s3)nc3ccccc23)n1,active: 10 µM,–
CC(C)(C)c1ccc(OCC(=O)O/N=C(\N)c2ccncc2)cc1,"inconclusive [inhibitor, single point]",–
Cc1ccc(S(=O)(=O)N2[C@H](CC(=O)OCc3ccccc3)OC[C@@H]2C(C)C)cc1,"inconclusive [inhibitor, single point]",–
O=C(C1CCCCC1)N1C[C@H](O)[C@@H](n2cc(-c3ccc(F)cc3)nn2)C[C@@H]1c1ccccc1,"inconclusive [inhibitor, single point]",–
Cc1[nH]c2ccccc2c1C(C[N+](=O)[O-])c1ccco1 (stereo unspecified),"inconclusive [inhibitor, single point]",–
Cn1c(N=NC(=O)c2ccccc2)c(O)c2ccccc21,"inconclusive [inhibitor, single point]",–
CCOC(=O)Cc1csc(NC(=O)Cc2ccc(C)cc2)n1,"inconclusive [inhibitor, full curve, poor fit]",–
Nc1[nH]c(C(=O)c2ccccc2)c(-c2ccc(Br)cc2)c1C(=O)NCCc1c[nH]c2ccccc12,"inconclusive [inhibitor, partial curve, poor fit]",–
c1cc(CNC2C3CC4CC(C3)CC2C4)ccn1 (stereo unspecified),–,inactive: -17.5%
Cc1cccc(NC(=O)C2CCN(S(=O)(=O)c3c(C)noc3/C=C/c3ccco3)CC2)n1,"inconclusive [inhibitor, partial curve, poor fit]",–
CN1CCc2nc(NC(=O)COc3ccc4ccccc4c3)sc2C1,"inconclusive [inhibitor, partial curve, poor fit]",–
O=C(NC1CCCC1)C(c1ccc(F)cc1)N(Cc1ccc(F)cc1)C(=O)CCl (stereo unspecified),–,inactive: -8.14%
COc1ccc(N(C)S(=O)(=O)c2cccc(C(=O)Nc3ccc4c(c3)OCCO4)c2)cc1,"inconclusive [inhibitor, partial curve, poor fit]",–
Fc1cccc(NC(=S)NCc2ccc(Cl)cc2)c1,"inconclusive [inhibitor, single point]",–
CCN(CC)S(=O)(=O)c1ccc(N/N=C/c2cc(OC)ccc2O)nc1,"inconclusive [inhibitor, partial curve, poor fit]",–

SMILES,Potency,"activity change, negative = inhibition"
NCCCCCc1nnc(SCc2ccc(Cl)c(Cl)c2)o1,–,inactive: 0%
COc1ccccc1Cc1c(-c2cccc(Cl)c2)nc2ccc(Cl)cn12,"inconclusive [inhibitor, partial curve, poor fit]",–
Cc1ccc(NC(=S)Nc2cccc3cnccc23)cc1C,"inconclusive [inhibitor, single point]",–
Cc1ccccc1N1CC(C(=O)Nc2ccc(Br)cc2)CC1=O (stereo unspecified),"inconclusive [inhibitor, partial curve, poor fit]",–
S=c1[nH]nc(-c2ccc3ncccc3c2)n1-c1ccc2c(c1)OCCO2,–,inactive: 58%
COc1ccccc1-n1c(SC(C)C(=O)NCC2CCCO2)nc2cc(Cl)ccc2c1=O (stereo unspecified),"inconclusive [inhibitor, partial curve, poor fit]",–
FC(F)(F)c1cccc(-c2nc(COc3ccc(Cl)cc3Cl)no2)c1,"inconclusive [inhibitor, single point]",–
COc1ccc(-c2noc(CCCC(=O)N3CCN(c4cc(C)ccc4C)CC3)n2)cc1,–,inactive: -5.69%
COc1cccc(-n2cc(-c3ccc(F)cc3)[nH]c2=S)c1,"inconclusive [inhibitor, single point]",–
C[C@H](O)[C@@H]1C(=O)N2CCc3c([nH]c4ccccc34)[C@@H]2C[C@@H]1N(C)S(=O)(=O)c1ccccc1,"inconclusive [inhibitor, single point]",–
CN(C)N=Nc1ccc(S(N)(=O)=O)cc1,–,inactive: 13.6%
CC(C)(C)N(Cc1ccccc1)C(=O)COC(=O)CN1C(=O)C2CC=CCC2C1=O (stereo unspecified),"inconclusive [inhibitor, single point]",–
COc1ccc(C(CNC(=O)Cc2ccccc2Cl)N2CCCCC2)cc1 (stereo unspecified),–,inactive: -18.1%
Cc1ccc(NC(=O)CN(C)C(=O)c2ccccc2Cc2ccccc2)cc1,active: 10 µM,–
CC1CN(C(=O)CCC(=O)NCc2ccc(Cl)cc2)c2ccccc2S1 (stereo unspecified),"inconclusive [inhibitor, single point]",–
COc1ccc(OC)c(S(=O)(=O)N/N=C\c2ccc3c(c2)OCO3)c1,–,inactive: 16.8%
C=CCNC(=O)c1onc(CCl)c1C(=O)OC,"inconclusive [inhibitor, single point]",–
O=C(O)CSCCC(=O)Nc1ccc(F)cc1,–,inactive: 1.29%
O=C(OCc1csc(-c2ccccc2)n1)c1cccs1,"inconclusive [inhibitor, single point]",–
Cc1[nH]n(-c2ccccc2)c(=S)c1C=Nc1cccc([N+](=O)[O-])c1,–,inactive: -22.3%
Cc1[nH]n(-c2ncc(-c3ccccc3)s2)c(=O)c1C(c1ccc(Cl)cc1)C(C#N)C#N (stereo unspecified),"inconclusive [inhibitor, partial curve, poor fit]",–
O=C(/C=C/c1ccc(F)cc1)NCC1(c2ccccc2)CCOCC1,"inconclusive [inhibitor, single point]",–

SMILES,Potency,"activity change, negative = inhibition"
N=C(N)SCc1nc2ccccc2c(=O)n1-c1ccccc1Cl,–,inactive: 0.65%
COc1ccc(OC)c(CCNC(=O)c2cc3c(=O)oc4ccc(C)cc4c3s2)c1,–,inactive: 7.33%
CC(=O)Nc1ccc(NC(=O)C2CCCN2S(=O)(=O)c2ccc3c(c2)CCCC(=O)N3)cc1 (stereo unspecified),–,inactive: -0.702%
C[C@H](NC(=O)c1nc[nH]c1C(=O)N[C@@H](Cc1ccccc1)C(=O)OC(C)(C)C)C(=O)OCc1ccccc1,"inconclusive [inhibitor, single point]",–
O=C(NC1CCCCCC1)C1CCN(C(=O)c2ccc(Br)cc2)CC1,"inconclusive [inhibitor, partial curve, poor fit]",–
CC(C)C[C@H](NC(=O)c1nc[nH]c1C(=O)NCCCCCNC(=O)OC(C)(C)C)C(=O)OC(C)(C)C,"inconclusive [inhibitor, partial curve, poor fit]",–
O=C(Nc1ccc(N2CCN(C(=O)c3cccs3)CC2)c(Cl)c1)c1cccnc1,"inconclusive [inhibitor, single point]",–
CCCC(=O)n1nc(-c2ccco2)nc1NCc1ccccc1Cl,–,inactive: 5.65%
CC1CCN(S(=O)(=O)c2ccc3c(c2)C(=NO)c2cc(S(=O)(=O)N4CCC(C)CC4)ccc2-3)CC1,"inconclusive [inhibitor, full curve, poor fit]",–
COc1ccccc1OC(=O)c1ccc(SC)cc1OC,"inconclusive [inhibitor, single point]",–
CC1CCCCN1CCNC(=O)Cn1nc(-c2ccccc2)ccc1=O (stereo unspecified),–,inactive: 0%
Cc1ccnc(NC(=O)C2CC(=O)N(c3ccc4c(c3)OCCO4)C2)c1 (stereo unspecified),"inconclusive [inhibitor, partial curve, poor fit]",–
O=C(Nc1nnc(S(=O)(=O)N2CCOCC2)s1)c1ccccc1Cl,"inconclusive [inhibitor, partial curve, poor fit]",–
Cc1cc2nn(-c3ccc(F)cc3)nc2cc1NC(=O)c1cccc2ccccc12,–,inactive: 4.51%
C/C=C(\C)CN1CCC(n2nccc2NC(=O)CCc2ccccc2)CC1,"inconclusive [inhibitor, partial curve, poor fit]",–
Cc1ccc(-c2csc(N3CCN(CCCn4c(C(F)(F)F)nc5ccccc54)CC3)n2)cc1,"inconclusive [inhibitor, single point]",–
CCCN1CCCc2ccccc21,"inconclusive [inhibitor, single point]",–
CC(C)c1ccc(NC(=O)CSc2n[nH]c(=O)n2Cc2ccco2)cc1,–,inactive: -42.2%
CCOC(=O)c1c(NC(=O)COC(=O)c2ccccc2NC)sc(C(=O)N(C)C)c1C,"inconclusive [inhibitor, partial curve, poor fit]",–
N#Cc1cccc(-c2cn(S(=O)(=O)c3ccc(Cl)cc3)nc2N)c1,"inconclusive [inhibitor, partial curve]",–
CN1CCC(=C2c3ccccc3C(O)c3ccccc32)CC1 (stereo unspecified),–,inactive: -21.5%
O=C(Nc1cccc(C(F)(F)F)c1)C1CCCN(S(=O)(=O)c2cnc[nH]2)C1 (stereo unspecified),"inconclusive [inhibitor, single point]",–
